# Laboratory results published in PubChem BioAssay AID488969 (Vanderbilt High Throughput Screening Facility, 2010).
# Over roughly 110,000 compounds, “z-score” has its median near -0.1; the highest 2% begin near 2. Some of the results follow. The source made the active and inactive calls.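 The calls were made as follows: active = z-score in the third read window above 3 or below -3; inactive = the rest.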
# Molecular target: Metabotropic glutamate receptor 8 (Rattus norvegicus) (UniProt P70579)
# Assay: rat mGluR8 modulators via GIRK flux, primary screen, cell-based, thallium flux, HTS (AID 488969)
# Conditions: HEK293 rat mGluR8, GIRK (G protein-gated inwardly rectifying potassium channel) thallium flux, FluoZin2; at 10 µM; stronger effect = higher value; submaximal glutamate (EC20) added with thallium
# UniProt P70579, sequence (P70579 whole entry, looked up): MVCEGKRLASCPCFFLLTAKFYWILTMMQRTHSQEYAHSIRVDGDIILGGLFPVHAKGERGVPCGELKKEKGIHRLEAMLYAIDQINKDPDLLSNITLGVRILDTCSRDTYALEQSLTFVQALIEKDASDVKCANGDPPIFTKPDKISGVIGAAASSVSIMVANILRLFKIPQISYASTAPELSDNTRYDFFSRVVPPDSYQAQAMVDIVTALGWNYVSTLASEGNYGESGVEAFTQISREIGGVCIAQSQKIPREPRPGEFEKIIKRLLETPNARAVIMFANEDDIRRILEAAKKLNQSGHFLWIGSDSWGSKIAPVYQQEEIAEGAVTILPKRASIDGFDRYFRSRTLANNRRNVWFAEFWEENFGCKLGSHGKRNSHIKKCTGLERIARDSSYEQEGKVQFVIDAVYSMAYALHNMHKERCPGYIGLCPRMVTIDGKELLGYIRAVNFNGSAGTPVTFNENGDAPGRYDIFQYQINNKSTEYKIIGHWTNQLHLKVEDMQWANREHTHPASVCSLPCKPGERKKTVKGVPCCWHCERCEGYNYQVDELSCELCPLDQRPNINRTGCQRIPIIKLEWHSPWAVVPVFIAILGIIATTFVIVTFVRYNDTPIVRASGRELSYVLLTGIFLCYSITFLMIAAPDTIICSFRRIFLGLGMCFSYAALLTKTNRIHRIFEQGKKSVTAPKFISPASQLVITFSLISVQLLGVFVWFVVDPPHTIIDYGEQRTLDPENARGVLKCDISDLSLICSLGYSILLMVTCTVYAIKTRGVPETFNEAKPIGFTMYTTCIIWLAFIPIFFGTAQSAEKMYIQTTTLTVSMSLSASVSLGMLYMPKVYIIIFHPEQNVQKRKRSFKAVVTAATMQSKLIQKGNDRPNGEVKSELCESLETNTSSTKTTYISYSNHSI
row,Structure (SMILES),z-score
1,Cc1ccc(C)n1NC(=O)c1ccccc1Cl,0.093
2,Cc1nn(C(=O)c2ccccc2)c2c1C(=O)CC(C)(C)C2,2.47
3,CCOc1ccc(C(=O)NCC2OCCc3ccccc32)cc1 (configuration not stated),0.111
4,COc1cccc(CC(=S)N2CCOCC2)c1,-0.198
5,CCOc1cc(C2NC(=O)NC(C)=C2C(=O)NCc2ccccc2)c(Cl)cc1O (configuration not stated),-0.854
6,Cc1ccccc1CN1CCN(S(C)(=O)=O)CC1,0.559
7,CC(C)Oc1ccc(-c2cc(C(=O)NCCN3CCOCC3)c3ccccc3n2)cc1,-1.1
8,Cc1ccc(-c2noc(CCCc3ccccc3)n2)cc1,-0.389
9,CC(C)(C)C1CCc2c(sc(NC(=O)c3ccco3)c2C(N)=O)C1 (configuration not stated),0.458
10,Cc1cccc(N2CCN(C(=O)Cn3ccc4ccccc4c3=O)CC2)c1C,-0.483
11,COC(=O)c1sc(S(=O)(=O)N2CCC(C(=O)O)CC2)c(C(=O)OC)c1C,-0.11
12,CC(=O)C1=C(C)Nc2ncnn2C1c1ccc(Cl)cc1 (configuration not stated),0.0506
13,COc1ccc(CN2C(=O)[C@@H]3C(c4ccc(F)cc4)=NO[C@@H]3C2=O)cc1,0.0203
14,Cc1ccc2nc(-c3ccc(NC(=O)COC(=O)c4ccco4)cc3)sc2c1,-0.121
15,CCCc1nc2ccccc2c(=O)n1/N=C/c1ccc(O)cc1O,0.0715
16,COCCNC(=O)COC(=O)c1[nH]c(C)c(C(C)=O)c1C,0.0417

row,Structure (SMILES),z-score
1,CC(C)OC(=O)c1nnn(-c2nonc2N)c1CSc1ccccn1,-0.642
2,CCOC(=O)c1cnc2c(OC)cccc2c1N1CCN(c2ccccc2OC)CC1,0.407
3,Cc1ccc(C(=O)NCCCN2CCOCC2)cc1,0.146
4,O=C(NCc1cccnc1)C1c2ccccc2C(=O)N1Cc1ccccc1 (configuration not stated),-0.0928
5,COc1cc(C2NC(=O)NC(O)(C(F)(F)F)C2C(=O)c2cccs2)ccc1O (configuration not stated),-0.852
6,Cc1ccc(C(=O)Oc2cc(-c3ccccc3)no2)cc1,0.454
7,O=C(CSc1nnc(-c2ccc(O)cc2)n1Cc1ccco1)c1cccs1,-0.786
8,CCCc1ccc(OCc2ccc(C(=O)OC)o2)c(OC)c1,-0.263
9,Clc1ccc(-n2nnnc2CN2CCCCC2)cc1Cl,0.318
10,Nn1c(SCC(=O)Nc2ccc(F)cc2)nnc1-c1cccnc1,0.328
11,CN(C)CCNc1ncnc2c1cnn2-c1ccc(Cl)cc1,active: 3.51
12,Cc1cc(NC(=O)c2oc3ccccc3c2C)ccc1-n1cnnn1,1.86
13,O=C(CSc1nc2ccccc2[nH]1)NCC1CCCO1 (configuration not stated),-0.0727
14,Cc1cccc(Sc2c(C=O)c3ccccc3n2C)c1,-0.459
15,Cc1ccc(CN2CCN(/N=C/c3cccnc3)CC2)cc1,0.00777
16,O=S(=O)(NCC(c1cccnc1)N1CCN(c2ccc(F)cc2)CC1)c1cc(F)ccc1F (configuration not stated),-0.359
